Cell count data for 66 molecules are collected here from PubChem BioAssay AID1625 (Sanford-Burnham Center for Chemical Genomics, 2009).

Where “and” joins values, the source holds several entries; their conditions need not be identical. Identical values can stand only once. Some of the results follow. These are further read-outs of the screen, such as a control signal, another cell line or another target. No call is given for them. Compounds called inactive in the main read-out are mostly missing here.

The assay can be described thus: up-regulation of insulin promoter-GFP reporter – imaging, high-content screening, mouse beta cells (AID 1625).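 Further: total cells summed across four imaged fields per well.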 As to conditions: MIN6 insulin promoter-GFP reporter, measured here: cytotoxicity, nuclei count, at 5 µM.
The molecule `Cc1noc(C)c1S(=O)(=O)N1CCN(c2ccccc2)CC1` displayed a cell count of 453 cells.

Molecule `COc1ccc(C(=O)c2c(C(F)(F)F)oc3c2C(=O)c2ccccc2C3=O)cc1OC` registered a cell count of 352 cells.

Regarding `CC(=O)c1cc(C#N)c(SCC(=O)C(C)(C)C)nc1C`, the cell count was 191 cells.

For `COc1cccc(/C=N/Nc2ncnc(Cl)c2N)c1O`, the cell count came out at 457 cells.

Regarding `CCCCCCc1nc2ccccc2c(=O)n1NC(=O)c1c(O)c2c(n(CC(C)C)c1=O)CCCC2`, the cell count worked out at 469 cells.

The molecule `CNC(=O)c1ccc(-c2sc3nc(N4CCOCC4)c4c(c3c2N)CC(C)(C)OC4)o1` had a cell count of 1240 cells.

Turning to `CCc1cccc2cc3c(N)c(C(=O)Nc4ccc(S(=O)(=O)N5CCCC5)cc4)sc3nc12`, the cell count is 1030 cells.

In turn, `Cc1cccc(NC(=O)Nc2ccc(C#N)cc2)n1` gave a cell count of 1710 cells.

`N/C(COc1ccc(Cl)cc1)=N\NS(=O)(=O)c1ccccc1` registered a cell count of 441 cells.

`O=C(NCC(=O)N(CC1CCCO1)C1(C(=O)NC2CCCC2)CCCCC1)c1ccccc1` (stereo unspecified) returned a cell count of 412 cells.

In turn, `O=C(CN1CCN(c2ncccn2)CC1)Nc1ccccc1-n1cccc1` had a cell count of 454 cells.

Regarding `O=C1c2cccc3c(N4CCCCC4)ccc(c23)C(=O)N1c1ccccc1O`, the cell count came to 1400 cells.

In the case of `Cc1ccc(CNc2ccc3c(c2)OCO3)c(C)c1`, the cell count is 1200 cells.

For `Cc1ccnc(N/C=C(\C#N)c2nc(-c3cccc(Br)c3)cs2)c1`, the cell count was determined as 1480 cells.

Molecule `CC(C)c1ccccc1-n1c(SCC(=O)N2CCc3ccccc3C2)nc2ccccc2c1=O` returned a cell count of 386 cells.

On to `COc1cccc(Nc2nc(NCC3CCCO3)c3ccccc3n2)c1` (stereo unspecified), for which the cell count is 269 cells.

Turning to `Cc1c(N=C2N=C(NC(=O)c3cccs3)c3ccccc32)c(=O)n(-c2ccccc2)n1C`, the cell count worked out at 1390 cells.

Turning to `Cc1cc(C)n(-c2nc(NCCN(C)C)c3c4c(sc3n2)CCCC4)n1`, the cell count is 376 cells.

The molecule `COC(=O)c1cc2c(-c3ccccc3)cc3ccccn3c-2c1C(=O)OC` came in with a cell count of 981 cells.

The molecule `O=C(c1cc(-c2cccs2)on1)N1CCN(C(c2ccccc2)c2ccccc2)CC1` registered a cell count of 466 cells.

For `Cc1ccc2c(c1)nnn2C1CCN(S(=O)(=O)c2ccc(C(=O)N3C(C)CCCC3C)cc2)CC1` (stereo unspecified), the cell count was found to be 431 cells.

For `CCCCNc1cc(C)nc(NCc2ccccc2)n1`, the cell count came to 301 cells.

With `N#C/C(=C\c1ccc([N+](=O)[O-])o1)c1nc2ccccc2[nH]1`, the cell count was found to be 440 cells.

Regarding `COc1ccc(C2=Nn3c([n+](C)c4ccccc43)SC2)cc1`, the cell count amounted to 394 cells.

The molecule `O=C(/C=C/c1cc(Br)ccc1O)c1ccco1` showed a cell count of 351 cells.

Turning to `CCCc1[nH]nc2c1C(c1ccc(Br)s1)C(C#N)=C(N)O2` (stereo unspecified), the cell count worked out at 496 cells.

Turning to `COc1ccc(C(=O)C[n+]2cc(-c3ccc(OC)cc3)n3c2CCCC3)cc1`, the cell count is 430 cells and 489 cells.

For the molecule `CC1CCCN(c2ncnc3c2cnn3-c2ccc(Cl)cc2)C1` (stereo unspecified), the cell count came out at 442 cells.

`Cc1nonc1NC(=O)CSc1nc2c(C)cccc2cc1C#N`: the cell count was 1430 cells.

For the molecule `CC(C)c1ccc(-n2c(-c3ccccc3)c[n+]3c2CCc2ccccc2-3)cc1`, the cell count stood at 323 cells.

In the case of `Cc1nc(N2CCN(C(=O)c3ccco3)CC2)c2c3c(sc2n1)CCCC3`, the cell count turned out to be 415 cells.

With `CCOC(=O)c1[nH]c2ccccc2c1NC(=S)Nc1cccc(C)c1`, the cell count was 414 cells.

In the case of `CN(C)/C=N/c1ncc(C(=O)c2ccc(Cl)cc2)s1`, the cell count amounted to 465 cells.

`CN(C)CCCN(C(=O)/C=C/c1cccs1)c1nc2ccc(F)cc2s1`: the cell count is 286 cells.

In turn, `CCn1ncc(Br)c1C(=O)Nc1sc2c(c1C(N)=O)CCC2` displayed a cell count of 1070 cells.

Turning to `CCCCc1c(CCC)c(=N)c2ccccc2n1C`, the cell count was determined as 126 cells.

Take `CCN1/C(=C\c2ccc3ccccc3[n+]2CC)Sc2cc(C)ccc21`: the cell count came out at 196 cells.

`CCN(CC)S(=O)(=O)c1ccc(C(=O)OCn2c(SC)nnc(C)c2=O)cc1` showed a cell count of 427 cells.

Turning to `Cc1noc(C)c1S(=O)(=O)N1CCC(C(=O)N2CCN(C3CCCC3)CC2)CC1`, the cell count worked out at 1440 cells.

The molecule `Cn1c(=O)n(C)c2cc([N+](=O)[O-])c(N3CCN(C(=O)c4ccccc4)CC3)cc21` came in with a cell count of 496 cells.

As to `CN(C)c1ccc(/C=C2\SC(=O)N(CC(O)Cn3c4ccccc4c4ccccc43)C2=O)cc1` (stereo unspecified), the cell count came out at 1310 cells.

Molecule `CCOC(=O)CNC(=O)c1cn(C)c(=O)c2cc(OC)c(OC)cc12` gave a cell count of 1070 cells.

As to `CC(C)NCC(O)Cn1c2c(c3ccccc31)CCc1c-2cnn1-c1ccccc1` (stereo unspecified), the cell count stood at 481 cells.

Molecule `CCN=c1scc(-c2ccc3c(c2)NC(=O)CO3)n1N=C1CCCC1` displayed a cell count of 426 cells.

The molecule `Cc1cccc(N2CCN(S(=O)(=O)c3ccc4c(c3)CCN4C(=O)CCC(=O)O)CC2C)c1` (stereo unspecified) gave a cell count of 397 cells.

`COc1ccc(NS(=O)(=O)c2ccc(OC)c(N(C)S(=O)(=O)c3ccc(Cl)cc3)c2)cc1`: the cell count was 328 cells.

On to `O=C(c1ccco1)N1CCN(c2nc(C(F)(F)F)nc3c2nnn3Cc2ccccc2)CC1`, for which the cell count was 401 cells.

Consider `CCOC(=O)CN1CC23C=CC(O2)C(C(=O)Nc2cc(OC)ccc2OC)C3C1=O` (stereo unspecified), for which the cell count was 2010 cells.

As for `Clc1nc2c(-c3ccccc3)nnn2c2ccccc12`, the cell count was 302 cells.

Regarding `O=C(N/N=C/c1cc(Br)ccc1O)c1cccc(N2CCCC2=O)c1`, the cell count was determined as 426 cells.

On to `COc1cccc(-c2nc(CS(=O)(=O)CC(=O)N3CCc4ccccc43)c(C)o2)c1`, for which the cell count was 450 cells.

Molecule `CC1=C/C(=N\OS(=O)(=O)c2ccccc2)C=CC1=O` came in with a cell count of 473 cells.

On to `O=C(CCCO)N/N=C/c1cc(Br)ccc1O`, for which the cell count was determined as 392 cells.

For `CCOc1ccccc1NC(=O)CN(c1ccc(C)cc1)S(=O)(=O)c1c(C)n[nH]c1C`, the cell count came to 449 cells.

As to `Cc1[nH]c2ccccc2c1/C=N/Nc1ccc([N+](=O)[O-])cc1`, the cell count stood at 1100 cells.

With `Cc1cc2[nH]c3c(c[n+](C)c4ccccc34)c2cc1C`, the cell count came out at 381 cells.

The molecule `C/C(CCc1ccc2c(c1)OCO2)=N\NC(=O)c1ccccc1` registered a cell count of 476 cells.

`CN(C)C=Nc1ccc2nn(-c3ccccc3)nc2c1`: the cell count is 1390 cells.

Molecule `CC(C)(C)c1ccc(-c2cn(-c3ccc(Br)cc3)c3[n+]2CCCS3)cc1` showed a cell count of 418 cells.

With `N#C/C(=C/c1ccc(-c2ccccc2)o1)c1nc(-c2cccs2)cs1`, the cell count is 1070 cells.

`N#C/C(=C/c1ccc(-c2ccc(S(N)(=O)=O)cc2)o1)c1nc2ccccc2s1` yielded a cell count of 1100 cells.

In turn, `CN(C)c1ccc(-c2n(C)c3ccccc3[n+]2C)cc1` yielded a cell count of 444 cells.

Consider `COc1ccc(-n2cc(-c3ccccc3)[n+]3c2CCCCC3)cc1`, for which the cell count came to 448 cells.

In turn, `O=C(OCC(=O)N1CCN(C(=O)c2ccco2)CC1)c1ccccc1OCc1ccccc1` returned a cell count of 1320 cells.

In turn, `CCn1c(/C=C/c2ccc([N+](=O)[O-])o2)nc2ccccc2c1=O` yielded a cell count of 254 cells.

Regarding `CCCCN(CC)S(=O)(=O)c1ccc(C(=O)N=c2sc3cc(NC(C)=O)ccc3n2C)cc1`, the cell count turned out to be 490 cells.
